Tests used:
[1] = biological target: T1, human Claudin 18.1 (Homo sapiens, UniProt P56856); assay: Specificity by FACS, HEK293T-human Claudin 18.1 cells; type: binding; conditions: antibody 1000 nM
T1 construct: expressed in transfected cells

[2] = biological target: T2, human Claudin 18.2 (Homo sapiens, UniProt P56856); assay: Cell ELISA on L929-Claudin 18.2 cells; type: binding; conditions: binding to L929-Claudin 18.2 cells, Cellular ELISA
T2 construct: expressed in transfected cells; cells formaldehyde-fixed for the cell ELISA
Experimental: Human Claudin18.2 belongs to the tetraspanin family and has a complex structure. Cell ELISA was thus carried out to maintain the structure of Claudin18.2. The stable cell lines L929-Claudin 18.2 constructed in 6.1 were used for detection. Specifically, L929-Claudin 18.2 adherent cells were detached by 2 mM EDTA treatment. The cells were resuspended and adjusted to 2×10^5/mL and 100 μL of the resuspension was plated into a 96-well plate and incubated overnight at 37° C. The next day, the media was removed, and the plate was washed with PBS once. 100 μL/well 4% formaldehyde was added to the plate. After 30 min of incubation at room temperature, formaldehyde was removed, followed by being washed twice with PBS. Blocking buffer (PBS containing 2% BSA) was then added to the plate at 100 μL/well, and incubated at 37° C. for 2 h. After removal of blocking buffer, 100 μL/well of serially diluted antibodies (starting from 1 μM, with 4-fold dilution, for a total of 11 concentrations) were added to the corresponding wells, which were incubated at 37° C. for 2 h afterwards. The plate was washed with 250 μL PBST for 5 times, and was allowed to stand for 2 min each time. 100 μL/well of horseradish peroxidase labeled anti-Human IgG secondary antibody (HRP-anti-Human IgG, Jackson ImmunoResearch, 109-035-003) diluted 1:10000 in PBS (containing 2% BSA) was added to the plate. The plate was incubated at 37° C. for 1 h and washed with 250 μL of PBST 6 times, wherein the plate was allowed to stand for 2 min each time. 100 μL/well of TMB solution (Thermo, 34029) was added. The reactions were incubated at 37° C. for 20 min and stopped with 50 μL 2 mol/L H2504. The OD450 nm absorbance values were obtained on a plate reader (MD, SpectraMax M2) and the results were subjected to curve fitting by Graphpad Prism.
A cell-based ELISA method was carried out to determine the affinity of 2C6.9-TL001 (DAR: 7.12) to Claudin 18.2 on the surface of cell membrane. […]

[3] = biological target: T3, human Claudin 18.2 on cell membrane (Homo sapiens, UniProt P56856); assay: Affinity to HEK293T-Claudin 18.2 by flow cytometry; conditions: binding to HEK293T-Claudin 18.2 cells
T3 construct: expressed in transfected cells
Experimental: The affinity of 2C6.9-hz21 to human Claudin 18.2 on cell membrane was detected using HEK293T-Claudin 18.2 cells. The specific procedures were as follows: HEK293T-Claudin 18.2 cells were detached and centrifuged, followed by being washed twice with PBS. And then the cells were resuspended in PBS containing 1% BSA and were plated into a 96-well tip bottom plate at 300000 cells per well in a volume of 50 μl for 20 wells in total. […] of 2C6.9-hz21 and IMAB362 antibody were separately then added with 11 concentrations starting from 1000 nM with three-fold dilution to each well. Human IgG was served as negative control. The reactions were mixed well and incubated for 1 h at 4° C. in the dark, followed by three times of washing with PBS, the FITC-labelled anti-human Fc secondary antibody (Biolegend, 409322) was added and incubated for 0.5 h at 4° C. in the dark. Detection was performed by flow cytometry (Beckman, Cytoflex) after being washed for three times with PBS.

[4] = tested on: HEK293T-Claudin 18.2 cells; assay: ADCC, NK cell mediated killing assay; type: cell-based, human; conditions: NK92MI-CD16a effector cells, LDH detection
Experimental: 2C6.9 belongs to IgG1 subtype and has relative strong antibody-dependent cell-mediated cytotoxicity (ADCC). NK cell mediated killing assay was used to determine the ADCC activity of 2C6.9. The specific procedures were as follows: HEK293T-Claudin 18.2 cells were harvested and centrifuged, followed by adjustment of cell density. 1×10^4/well of cells were plated on a plate and incubated overnight. The medium was removed on the next day. NK92MI-CD16a cells (Huabo Biopharm) were centrifuged, resuspended in MEMA medium and adjusted to 1×10^6/mL, then 50 μL/well cells were added to the corresponding wells. 2C6.9-hz21 and IMAB362 antibodies were diluted with MEMA medium. For HEK293T-Claudin18.2 cells, 10 antibody concentrations were tested, starting from 40 μg/mL with 5-fold dilution. For NUGC-4 cells, 11 antibody concentrations were tested, starting from 2 mg/mL with 5-fold dilution. 50 μL/well of the diluted antibodies were added to the corresponding wells and the reactions were left to stand in incubator at 37° C., 5% CO2 and incubated for 5.5 h. Lysis buffer was then added to the positive control well and incubated for another 0.5 h. 50 μL/well of Lactate Dehydrogenase (LDH) detection agent (DOJINDO LABORATORISE, CK12) were added to the wells and the absorbance at 490 nm were taken every 10 min on a microplate reader (MD, SpectraMax M2). […]

[5] = biological target: T2, human Claudin 18.2; assay: Specificity by FACS, HEK293T-human Claudin18.2 cells; type: binding; conditions: antibody 1000 nM

B1: 2C6.9-hz21: humanized anti-human Claudin 18.2 IgG1 kappa monoclonal antibody; heavy chain SEQ ID NO: 19, light chain SEQ ID NO: 20 (antibody)
heavy: QVQLQESGPGLVKPSETLSLTCTVSGFSLTRYGVSWIRQPPGKGLEWIGVIWGEGNTNYNPSLKSRVTISKDSSKSQVSLKLSSVTAADTAVYYCARVNFGNALDYWGQGTLVTVSS[human IgG1 constant region not spelt out]
light: DIVMTQSPDSLAVSLGERATINCKSSQSLLNSGNQKNYLTWYQQKPGQPPKLLIYWASTRDSGVPDRFSGSGSGTDFTLTISSLQAEDVAVYYCQNDFIFPLTFGGGTKVEIKRTVAAPSVFIFPPSDEQLKSGTASVVCLLNNFYPREAKVQWKVDNALQSGNSQESVTEQDSKDSTYSLSSTLTLSKADYEKHKVYACEVTHQGLSSPVTKSFNRGEC
modifications: Full length amino acid sequence of heavy chain of humanized antibody 2C6.9-hz21; Full length amino acid sequence of light chain of humanized antibody 2C6.9-hz11/2C6.9-hz21
- binding to human Claudin 18.1 [1]: not to human Claudin 18.1
- Max signal value (OD450) [2]: 0.92
- Max MFI [3]: 165866.3
- Max. cytotoxicity (%) [4]: 30%
- binding to human Claudin 18.2 [5]: specifically bind to human Claudin 18.2

Reference: patent US20230338565A1, “ANTIBODY DRUG CONJUGATE, PREPARATION METHOD THEREFOR AND USE THEREOF” (SICHUAN KELUN-BIOTECH BIOPHARMACEUTICAL CO., LTD., priority 2020, published 2023)
